Screen size: about 44,000 compounds; about 340 (0.77%) were called active. This list was built around the results that the source calls inconclusive (neither active nor inactive); the mix of calls is not that of the screen. Calls come from the whole dose curve; as a rule, active = well fitted inhibition curve with a large enough effect; inconclusive = small, poorly fitted or top-dose-only effect; inactive = flat fitted curve, though single readings scatter. Potencies of inconclusive entries are left out as doubtful fits.
Test: Acumen qHTS Assay for Inhibitors of the mTORC1 Signaling Pathway in MEF (Tsc2-/-, p53-/-) Cells: Sytravon; note: nearly all actives have a fitted effect of over 50% in size;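 for activity change, negative = inhibition: plate controls were DMSO for no effect and rapamycin for full effect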
Conditions: phospho-rpS6 immunofluorescence/PI, 24 h; series mostly up to 38.3 µM; activity change, negative = inhibition: at the top concentration
In short: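 Tsc2-/-, p53-/- MEFs (empty-vector stable line) in DMEM + 10% FBS were treated with compounds 24 h at 37 degree Celsius, fixed, and immunostained for phospho-rpS6 (Alexa-488) with propidium iodide counterstain. Laser-scanning cytometry gave % positive cells, normalized against 7.5 nM rapamycin and DMSO.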
Potency is the fitted concentration of half-maximal effect; tags give direction and shape of the fitted curve.

SMILES | Potency | activity change, negative = inhibition
COc1cc(C)ccc1OCCSc1nnc(-c2ccc(C)cc2)o1 | inconclusive [falling, partial curve, poor fit] | 
CC1CCCCN1CC(=O)N1CCCc2c1c(=O)oc1ccc(OCc3ccccc3)cc21 (stereo not drawn) | inconclusive [falling, partial curve] | 
CCCCN(CC)C(=O)Nc1ccc2c(c1)N(C)C(=O)c1ccccc1S2 | inconclusive [falling, single point] | 
O=C(Nc1ccc(F)cc1F)c1noc2c1CCc1ccccc1-2 | inconclusive [falling, single point] | 
Cc1cccn2c(=O)cc(COc3cccc(NC(=O)c4ccccc4F)c3)nc12 | inconclusive [falling, full curve, poor fit] | 
CCCCn1c(=O)c2oc3ccccc3c2n(CC(=O)Nc2cccc(Cl)c2)c1=O |  | inactive: 4.97%
COc1cc2c(cc1OC)n(CC(=O)c1ccc(F)cc1)c(=O)n1nc(CCn3nc(C)cc3C)nc21 | inconclusive [falling, partial curve] | 
Cc1ccc(CNC(=O)c2ccc3c(c2)N(Cc2ccccc2Cl)C(=O)CS3)cc1 | inconclusive [falling, partial curve, poor fit] | 
CC(C)OCCCNC(=O)c1ccc(Cn2c(=O)c3cccn3c3cccnc32)cc1 |  | inactive: -0.69%
COc1cccc(CNCc2cccn2-c2nnc(N3CCN(c4ccccc4)CC3)s2)c1 | inconclusive [falling, partial curve, poor fit] | 
O=C(CCn1c(=O)c2sccc2n(CC(=O)Nc2ccccc2)c1=O)NCc1ccccc1Cl | inconclusive [falling, single point] | 
CCn1c(=O)cc(SCC(=O)NCc2ccc(Cl)cc2)c2ccccc21 | inconclusive [falling, partial curve, poor fit] | 
O=C(Nc1ccc(O)c(-c2nc3ccccc3o2)c1)c1ccc(Br)cc1 |  | inactive: 12.3%
CN(C)c1cccc(C(=O)Nc2nc3ccc(S(=O)(=O)N4CCCC4)cc3s2)c1 | inconclusive [falling, partial curve, poor fit] | 
Cc1ccc(OCC(=O)NCC(c2ccc(Cl)cc2)N2CCOCC2)cc1C (stereo not drawn) |  | inactive: -1.69%
COc1ccc(-n2cnc3cc(C(=O)NC4CCCCCC4)ccc32)cc1 |  | inactive: -15.2%
CCc1nc(-c2cc(S(=O)(=O)N3CCN(c4ccccc4)CC3)ccc2OC)no1 | inconclusive [falling, partial curve, poor fit] | 
Cn1c(=O)c2c(-c3ccc(Br)cc3)n(Cc3ccc(F)cc3)cc2n(C)c1=O | inconclusive [falling, single point] | 
